Measurements from the supplement of paper PMC9446081.
Screen size: about 39,000 compounds; about 220 (0.56%) showed activity. Some of the results follow.

tested on: Escherichia coli K-12 BW25113; assay: relative growth (OD600 normalised to plate interquartile mean) (fraction); higher = less growth inhibition, active = 0.2 or less; settings: 50 µM; LB; incubation time: overnight (16-24 h)
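Further: static incubation at 37 °C against the wild-type strain, values averaged over two biological replicates.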

Compound | relative growth
Cc1noc(C)c1NC(=O)N(C)C[C@H]1Oc2ncc(C#CCN(C)C)cc2C(=O)N([C@@H](C)CO)C[C@@H]1C | inactive: 1
C[C@@H]1CN([C@H](C)CO)S(=O)(=O)c2ccc(C#CC3(O)CCCC3)cc2O[C@@H]1CN(C)C(=O)Nc1ccccc1 | inactive: 0.979
C[C@H](CO)N1C[C@H](C)[C@@H](CN(C)CC2CCCCC2)OCCCC[C@H](C)Oc2ccc(NC(=O)Nc3ccccc3)cc2C1=O | inactive: 0.899
Cc1ccc(S(=O)(=O)N(C)C[C@@H]2Oc3ccc(NC(=O)Nc4cccc5ccccc45)cc3CC(=O)N([C@@H](C)CO)C[C@@H]2C)cc1 | inactive: 1.03
C[C@H]1CCCCO[C@@H](CN(C)Cc2ccc(C(=O)O)cc2)[C@@H](C)CN([C@@H](C)CO)C(=O)c2cc(NC(=O)c3ccccc3)ccc2O1 | inactive: 1.02
COc1ccc(NC(=O)N(C)C[C@H]2OCCCC[C@H](C)Oc3ccc(NC(=O)C4CCCCC4)cc3C(=O)N([C@@H](C)CO)C[C@@H]2C)cc1 | inactive: 1.02
C[C@@H]1CN([C@H](C)CO)C(=O)c2cc(NC(=O)Cc3cn(C)c4ccccc34)ccc2O[C@@H]1CN(C)C(=O)Nc1cccc2ccccc12 | inactive: 1.01
Cc1c(CN2CCC(Nc3ncnc4sc(CC(F)(F)F)cc34)CC2)ccc2c1cc(C#N)n2Cc1cn[nH]c1 | inactive: 1.03
Cc1noc(C)c1NC(=O)Nc1cccc2c1O[C@H](CN(C)Cc1ccc(Oc3ccccc3)cc1)[C@H](C)CN([C@@H](C)CO)C2=O | inactive: 0.985
Cn1cnc(S(=O)(=O)N[C@@H]2C=C[C@H](CC(=O)N3CCN(c4ccccc4)CC3)O[C@H]2CO)c1 | inactive: 0.995
C[C@H](CO)N1C[C@H](C)[C@H](CN(C)C(=O)Nc2ccccc2)Oc2ccc(NS(C)(=O)=O)cc2CC1=O | inactive: 0.975
C[C@@H]1CN([C@@H](C)CO)C(=O)c2cccc(NC(=O)c3cnccn3)c2O[C@@H]1CN(C)Cc1ccncc1 | inactive: 0.987
Cc1noc(C)c1NC(=O)Nc1ccc2c(c1)C(=O)N([C@H](C)CO)C[C@H](C)[C@H](CN(C)C(=O)Nc1ccc(C(F)(F)F)cc1)O2 | inactive: 0.943
CON=C(C(=O)NC1C(=O)N2C(C(=O)OCOC(=O)C(C)(C)C)=C(C=Cc3scnc3C)CSC12)c1csc(N)n1 (stereo not drawn) | active: 0.0492
C[C@H]1CN([C@@H](C)CO)C(=O)Cc2cc(NS(=O)(=O)c3ccccc3)ccc2O[C@@H]1CN(C)S(=O)(=O)c1cn(C)cn1 | inactive: 0.998
C[C@@H]1CN([C@@H](C)CO)C(=O)c2cc(NC(=O)C3CCCCC3)ccc2O[C@@H]1CN(C)C(=O)Nc1ccc(C(F)(F)F)cc1 | inactive: 0.994
C[C@@H]1CN([C@H](C)CO)C(=O)c2cc(NC(=O)Nc3ccc4c(c3)OCO4)ccc2O[C@@H](C)CCCCO[C@@H]1CN(C)C(=O)CCC(F)(F)F | inactive: 0.934
NC(=O)c1nnn(Cc2ccccc2)c1N | inactive: 1.02
C[C@@H]1CN([C@@H](C)CO)C(=O)c2ccccc2-c2ccccc2CO[C@@H]1CN(C)C(=O)Nc1ccccc1C(F)(F)F | inactive: 1.01
COc1ccc(S(=O)(=O)N[C@@H]2CC[C@@H](CC(=O)N3CCN(c4ccccc4)CC3)O[C@H]2CO)cc1 | inactive: 0.987

Compound | relative growth
C[C@H](CO)N1C[C@H](C)[C@@H](CN(C)Cc2ccncc2)Oc2ccc(NS(=O)(=O)c3ccc(F)cc3)cc2C1=O | inactive: 0.99
COc1ccc(CN(C)C[C@@H]2Oc3ccc(NC(=O)Nc4cccc5ccccc45)cc3C(=O)N([C@H](C)CO)C[C@@H]2C)cc1 | inactive: 0.97
C[C@@H]1CCCCO[C@H](CN(C)C(=O)c2ccncc2)[C@H](C)CN([C@@H](C)CO)C(=O)c2cc(NC(=O)C3CCCCC3)ccc2O1 | inactive: 0.977
C[C@@H]1CC[C@H](C)N1c1cc(C(F)(F)F)cc(C(F)(F)F)c1 | inactive: 0.947
Cc1noc(C)c1S(=O)(=O)Nc1ccc2c(c1)C(=O)N([C@H](C)CO)C[C@H](C)[C@H](CN(C)C(=O)Nc1ccc(F)cc1)OCCCC[C@@H](C)O2 | inactive: 0.984
C[C@@H]1CN([C@H](C)CO)C(=O)Cc2cc(NC(=O)Nc3ccc(C(F)(F)F)cc3)ccc2O[C@H]1CN(C)Cc1ccc(C(=O)O)cc1 | inactive: 0.994
NC(C(=O)O)C(O)C(=O)O (stereo not drawn) ["d,l-threo-3-HYDROXYASPARTIC ACID"] | inactive: 1.08
O=C(Nc1ccno1)NN1CCOCC1 | inactive: 0.964
C[C@@H]1CN([C@H](C)CO)C(=O)Cc2cc(NC(=O)CCCCCC(=O)Nc3ccccc3N)ccc2O[C@@H]1CN(C)Cc1ccc(-c2ccccc2)cc1 | inactive: 0.996
CO[C@@H]1CN(C)C(=O)c2ccc(NC(=O)CC(F)(F)F)cc2OC[C@@H](C)N(S(=O)(=O)c2cn(C)cn2)C[C@@H]1C | inactive: 1
Cc1noc(C)c1S(=O)(=O)Nc1ccc2c(c1)C(=O)N([C@@H](C)CO)C[C@H](C)[C@@H](CN(C)S(=O)(=O)c1cn(C)cn1)OCCCC[C@@H](C)O2 | inactive: 0.985
N=C(N)NC[C@H]1COC2(CCCCC2)O1 | inactive: 0.987
COc1ccc(S(=O)(=O)Nc2ccc3c(c2)C(=O)N([C@@H](C)CO)C[C@H](C)[C@@H](CN(C)Cc2ccc(C(F)(F)F)cc2)OCCCC[C@@H](C)O3)cc1 | inactive: 1.05
Cc1ccc(S(=O)(=O)Nc2ccc3c(c2)C(=O)N([C@H](C)CO)C[C@@H](C)[C@H](CN(C)C(=O)Nc2ccc4c(c2)OCO4)OCCCC[C@@H](C)O3)cc1 | inactive: 1.01
C[C@H]1CCCCO[C@@H](CN(C)Cc2ccc(C(F)(F)F)cc2)[C@@H](C)CN([C@@H](C)CO)C(=O)c2cc(NC(=O)Nc3ccc(C(F)(F)F)cc3)ccc2O1 | inactive: 1.07
C[C@H](CO)N1C[C@H](C)[C@@H](CN(C)C(=O)c2ccc3c(c2)OCO3)Oc2cc(C#Cc3ccccc3F)ccc2S1(=O)=O | inactive: 1.02
CO[C@H]1CN(C)C(=O)c2cc(NC(=O)NC3CCCCC3)ccc2OC[C@H](C)N(CCc2ccccc2)C[C@@H]1C | inactive: 0.986
C[C@@H]1CN([C@@H](C)CO)S(=O)(=O)c2ccc(C#CC3(O)CCCC3)cc2O[C@H]1CN(C)C(=O)Cc1cccnc1 | inactive: 1.03
C[C@@H]1CCCCO[C@@H](CN(C)Cc2ccc(C(=O)O)cc2)[C@H](C)CN([C@H](C)CO)C(=O)c2cc(NS(=O)(=O)c3ccc(F)cc3)ccc2O1 | inactive: 1.01
O=S(=O)(NCC[C@H]1CC[C@H](NS(=O)(=O)c2ccccc2Cl)[C@@H](CO)O1)c1ccc(F)cc1 | inactive: 1.03

Compound | relative growth
C[C@H]1CN([C@@H](C)CO)C(=O)Cc2cc(NS(=O)(=O)c3cn(C)cn3)ccc2O[C@@H]1CN(C)Cc1ccccc1 | inactive: 1.01
C[C@@H]1CN([C@@H](C)CO)C(=O)c2cc(NC(=O)c3ccncc3)ccc2O[C@@H](C)CCCCO[C@@H]1CN(C)C(=O)Nc1ccc(C(F)(F)F)cc1 | inactive: 0.953
COc1ccc(CN2C[C@@H](C)[C@H](OC)CN(C)C(=O)c3ccc(NC(=O)c4nc5ccccc5s4)cc3OC[C@H]2C)cc1 | inactive: 1.02
C[C@H](CO)N1C[C@H](C)[C@@H](CN(C)C(=O)Nc2ccc(C(F)(F)F)cc2)OCCCC[C@H](C)Oc2ccc(NS(C)(=O)=O)cc2C1=O | inactive: 0.939
O=C(C[C@@H]1CC[C@H]2[C@@H](COC[C@@H](O)CN2S(=O)(=O)c2ccc(Oc3ccccc3)cc2)O1)NC1CCC1 | inactive: 1
C[C@@H]1CCCCO[C@@H](CN(C)Cc2ccccc2)[C@@H](C)CN([C@H](C)CO)C(=O)c2cc(NC(=O)CCCCCC(=O)Nc3ccccc3N)ccc2O1 | inactive: 0.993
C[C@@H]1CCCCO[C@@H](CN(C)Cc2ccncc2)[C@H](C)CN([C@@H](C)CO)C(=O)c2cc(NS(C)(=O)=O)ccc2O1 | inactive: 1.02
C[C@H](N)CCP(=O)(O)O | inactive: 1.01
Cc1noc(C)c1NC(=O)Nc1ccc2c(c1)C(=O)N([C@H](C)CO)C[C@H](C)[C@@H](CN(C)C(=O)NC1CCCCC1)OCCCC[C@H](C)O2 | inactive: 1.01
Cc1noc(C)c1NC(=O)Nc1ccc2c(c1)CC(=O)N([C@H](C)CO)C[C@@H](C)[C@@H](CN(C)S(=O)(=O)c1cn(C)cn1)O2 | inactive: 0.985
C[C@@H]1CN([C@@H](C)CO)C(=O)Cc2cc(NC(=O)Nc3ccc(F)cc3)ccc2O[C@@H]1CN(C)Cc1ccc(Oc2ccccc2)cc1 | inactive: 0.981
Cc1ccc(-n2nc(C(C)(C)C)cc2NC(=O)Nc2ccc(OCCN3CCOCC3)c3ccccc23)cc1 | inactive: 1
COc1ccc(S(=O)(=O)Nc2ccc3c(c2)CC(=O)N([C@H](C)CO)C[C@@H](C)[C@H](CN(C)S(=O)(=O)c2cn(C)cn2)O3)cc1 | inactive: 1
Cc1ccccc1S(=O)(=O)N1C[C@@H](O)COC[C@H]2O[C@H](CC(=O)N3CCN(C)CC3)CC[C@@H]21 | inactive: 0.984
C[C@H](CO)N1C[C@H](C)[C@H](CN(C)C(=O)Nc2ccnc(N3CCOCC3)c2)OCc2cnnn2CCCC1=O | inactive: 1
COc1cccnc1N | inactive: 0.99
C[C@@H]1CN([C@@H](C)CO)C(=O)Cc2cc(NS(=O)(=O)c3ccc(F)cc3)ccc2O[C@@H]1CN(C)CC1CC1 | inactive: 1.01
COc1cccc(S(=O)(=O)N2C[C@@H](O)COC[C@@H]3O[C@H](CC(=O)NCCCN4CCOCC4)CC[C@H]32)c1 | inactive: 0.98
